The campaign covered roughly 150,000 compounds. About 540 (0.36%) showed an effect of 50% or more. This is one part of the list.

The test relates to Plasmodium falciparum. The test can be described thus: Primary screen in NF54 nanoGlo assay, in single point, at 2uM, 72h; a lower Z score goes with more inhibition. The test is classed as functional, Erythrocyte. The conditions noted are these: timepoint 72 hour.
As for `CCCS(=O)(=O)NCC(=O)N1CCCCCNC(=O)C[C@H]1c1ccccc1`, the “% Inhibition” value is reported as -9% and the Z score is 1.12.
As to `O=S(=O)(NCCN1c2ccccc2N(C2CC2)S1(=O)=O)N1CCOCC1`, the “% Inhibition” value is 21% and the Z score is listed as -2.74.
The like results for `CNS(=O)(=O)c1cc(F)ccc1Cl` were, in that order, -7% and 1.44.
In the case of `CN(C(=O)CCn1cc(S(N)(=O)=O)cn1)C1CCCCCC1`, the “% Inhibition” value is reported as -21% and the Z score is reported as 1.95.
`CCOc1ccc2cc(C(=O)Nc3cc(C(N)=O)ccc3NCc3ccccc3)[nH]c2c1`: the “% Inhibition” value is -10% and the Z score came out at 1.83.
The like results for `COc1ccc(Oc2c(CN(C[C@@H](O)Cc3ccccc3)C3CC3)c(-c3ccccc3)nn2C)cc1` were, in that order, -17% and 1.74.
With `COc1ccccc1C1(CNS(=O)(=O)c2c(C)nn(C)c2C)CCOCC1`, the “% Inhibition” value was -4% and the Z score came out at 0.84.
Take `CC[C@H](C)NC(=O)N(Cc1cccc(OC)c1)C1CCC(O)CC1` (some centres not stated): the “% Inhibition” value was -11% and the Z score worked out at 1.24.
The like results for `O=C(O)CCCn1cc(NC(=O)C(c2ccccc2)c2ccccc2)cn1` were, in that order, 28% and -3.19.
As for `C[C@H](CO)N(C)Cc1ccc(Cl)c(F)c1`, the “% Inhibition” value was found to be 0% and the Z score turned out to be 0.02.
Regarding `CN(C)C(=NCCS(=O)(=O)CC1CCC1)N(C)C`, the “% Inhibition” value is 0% and the Z score was 0.04.
`Cc1cc(C(=O)N(C)Cc2ccc(-n3cccn3)cc2)n(CCN(C)C)n1`: the “% Inhibition” value was -5% and the Z score was found to be 0.69.
The like results for `Cc1nn(C)c2nc(N(Cc3cnn(C)c3)CC(C)C)sc12` were, in that order, 3% and -0.48.
Turning to `CO[C@H]1CN(C(=O)CCc2ccc(C)cc2)C[C@@H]1O`, the “% Inhibition” value came out at 0% and the Z score is recorded as -0.08.
For the compound `COCCc1noc(CNC(=O)c2cc(C3CC3)no2)n1`, the “% Inhibition” value stood at 8% and the Z score is given as -1.46.
Regarding `Cc1nc(-c2cc(C)[nH]c(=O)c2)n(-c2cccc3cccnc23)n1`, the “% Inhibition” value is reported as -10% and the Z score was found to be 1.25.
The like results for `CCN(CC)C(=O)CCS(=O)(=O)C1CCCC1` were, in that order, -6% and 0.77.
The like results for `O=C(c1cn2cccnc2n1)N(C1CCCCC1)C1CC1` were, in that order, -7% and 0.61.
`CCN(CC)C(=O)[C@@H]1C[C@H](N)CN1C1CCN(c2ccccc2Cl)CC1`: the “% Inhibition” value is listed as -19% and the Z score was determined as 2.05.
The like results for `Cc1nc(Oc2cccc3c2OCCC3)ccc1C#N` were, in that order, -8% and 1.44.
`Cc1nnnn1C(Cc1ccccc1)C(=O)N1CCOC2CCCCC21` (configuration not stated): the “% Inhibition” value amounted to 1% and the Z score is reported as -0.2.
As to `CS(=O)(=O)c1cccc2c1N(C(=O)c1ocnc1C1CC1)CCC2`, the “% Inhibition” value is reported as -14% and the Z score worked out at 2.62.
Turning to `O=C(Nc1nc2c(s1)CCC2)c1cccnc1Oc1ccc(F)cc1Br`, the “% Inhibition” value is 3% and the Z score is -0.42.
With `CC(C)(C)c1ccc(OCC2CCN(Cc3cc(C4CC4)on3)CC2)nn1`, the “% Inhibition” value is given as -9% and the Z score is 1.06.
The like results for `CC(C)CCCOCc1cccc(N)c1` were, in that order, -3% and 0.28.
Regarding `CCCc1ncncc1C(=O)N1CC[C@@H]2OCc3cccc(c3)Oc3cc(OC(C)C)cc(c3)C(=O)N(CC)CC(=O)N[C@H]2C1`, the “% Inhibition” value was 8% and the Z score is -1.15.
Take `CCn1cc(C(=O)N[C@@](C)(CC)CCO)cn1`: the “% Inhibition” value was -1% and the Z score amounted to 0.08.
The like results for `c1cnc(NCCc2noc(C3CCCC3)n2)nc1` were, in that order, -6% and 1.09.
On to `Cn1ccc(NC(=O)CNC(=O)C(C)(C)C)n1`, for which the “% Inhibition” value is reported as 6% and the Z score is -0.71.
For the compound `COc1ccc2c(c1)N1CCN(CC(=O)N3CCOCC3)CC1C(C(=O)NCc1ccc(F)cc1)C2` (configuration not stated), the “% Inhibition” value is -4% and the Z score was 0.53.
In the case of `Cn1ncc2c(=O)n(Cc3nc(COc4ccc(Cl)c(F)c4)no3)cnc21`, the “% Inhibition” value is listed as -2% and the Z score was found to be 0.29.
Take `Cc1cc(NCc2nc3cc(F)ccc3[nH]2)nc(N)n1`: the “% Inhibition” value is recorded as 6% and the Z score is listed as -1.16.
In the case of `CN(Cc1nccn1C)c1nccc(N2CCN[C@@H]3CS(=O)(=O)C[C@@H]32)n1`, the “% Inhibition” value was -9% and the Z score is given as 1.06.
For `CCc1nnsc1C(=O)N1CCC2(CC1)c1ccccc1C[C@@H]2O`, the “% Inhibition” value is 7% and the Z score is -1.32.
On to `Cc1c(CNC2CCCCCCC2)c(C(=O)O)c(C)n1Cc1ccccc1`, for which the “% Inhibition” value is on record as -7% and the Z score turned out to be 0.82.
For `O=S1(=O)CCCN1Cc1nnnn1-c1ccccc1`, the “% Inhibition” value was 9% and the Z score is on record as -1.26.
Turning to `O=C(C1CCCCC1)N1CCc2ccccc21`, the “% Inhibition” value was -7% and the Z score is listed as 0.93.
Turning to `Cc1ccc2[nH]c(C(=O)N3CCC[C@@]4(C3)C(=O)Nc3ccccc34)c(C)c2c1`, the “% Inhibition” value came out at 5% and the Z score is recorded as -0.98.
For the compound `Cc1noc(C)c1CC(=O)Nc1cccc2[nH]ccc12`, the “% Inhibition” value is on record as -3% and the Z score was found to be 0.46.
The like results for `O=S(=O)(c1ccc(Br)cc1Cl)N(C1CCCC1)C1CC1` were, in that order, -7% and 0.91.
On to `Cc1nn(C)c2nc(N3CCN4CCCC[C@H]4C3)sc12`, for which the “% Inhibition” value is given as -11% and the Z score came to 2.23.
With `C[C@@H](NC(=O)NC1CCc2[nH]cnc2C1)c1ccc(F)cc1` (some centres not stated), the “% Inhibition” value was -10% and the Z score is 1.89.
Regarding `COc1ccccc1N1CCN(C(=O)Cn2ncn3nc(-c4ccccc4)cc3c2=O)CC1`, the “% Inhibition” value was -4% and the Z score is reported as 0.81.
On to `Cc1c(S(=O)(=O)c2ccc(Cl)cc2)c(N)n(CCN2CCOCC2)c1C`, for which the “% Inhibition” value is recorded as -16% and the Z score is on record as 2.05.
For `C#CC[C@H](OC(=O)c1cccc2cn[nH]c12)c1ccccn1`, the “% Inhibition” value was -18% and the Z score is 2.59.
Consider `Cc1cnc(NC2CCS(=O)(=O)CC2)nc1N(C)C`, for which the “% Inhibition” value turned out to be 5% and the Z score is -0.71.
As to `CCCN1CCC(CC(=O)N2CCC(Oc3ncccn3)CC2)CC1`, the “% Inhibition” value amounted to 5% and the Z score is reported as -0.84.
In the case of `O=C(c1ccc2cc[nH]c2c1)N1CCC[C@@](F)(c2nc(C3CC3)no2)C1`, the “% Inhibition” value is on record as -2% and the Z score came to 0.28.
Regarding `C=CCN1CC[C@H](N(C)c2nccc(OC)n2)C1=O`, the “% Inhibition” value was found to be 4% and the Z score was -0.71.
For `CCOC1CC(n2nnnc2N2CC[C@H](OCC)C2)C12CCCC2` (some centres not stated), the “% Inhibition” value is -12% and the Z score is on record as 2.43.
The like results for `CCn1ncc(Br)c1C(=O)N(C)CCc1nccs1` were, in that order, 13% and -1.49.
`OC1CCCN(CC2CCC=CCCC2)CC1` (configuration not stated): the “% Inhibition” value was -10% and the Z score came to 1.43.
Consider `Cc1ccccc1CN1C(=O)OC(c2ccc(NC(=O)c3cccs3)cc2)C1C(=O)NCc1ccc(F)cc1` (configuration not stated), for which the “% Inhibition” value is -7% and the Z score is given as 1.28.
The like results for `Cc1cc(C)nc(Nc2ccc3cn[nH]c3c2)n1` were, in that order, -4% and 0.52.
`CCc1ccc(-c2cc3c(=O)n(Cc4noc(CN5CCN(C)CC5)n4)ccn3n2)cc1`: the “% Inhibition” value is recorded as -9% and the Z score was 1.23.
Regarding `Cc1nn(C)c(NC(=O)C(=O)c2ccc(Br)cc2)c1C`, the “% Inhibition” value is reported as -7% and the Z score came to 0.87.
Consider `O=C1NCC(C2CCOC2)C(=O)N1Cc1ccccc1C(F)(F)F` (configuration not stated), for which the “% Inhibition” value is 0% and the Z score was -0.04.
On to `CO/C(=N/C(=O)c1ccccc1Cl)NCCN1CCCCC1`, for which the “% Inhibition” value is -12% and the Z score was 1.82.
In the case of `C1CCC2(CC1)CC(NCC1COC1)C2`, the “% Inhibition” value is 1% and the Z score is recorded as -0.13.
Turning to `Cc1ccc([C@H](CNC(=O)c2cccs2)N2CCCCC2)cc1`, the “% Inhibition” value is given as -16% and the Z score turned out to be 2.11.
Consider `CC(C)c1nnc(Cn2nc(C(F)(F)F)c3cnccc32)o1`, for which the “% Inhibition” value is given as -16% and the Z score came out at 2.98.
On to `Cc1oc2ncnc(NCCNc3ncccc3C#N)c2c1C`, for which the “% Inhibition” value is recorded as -17% and the Z score is given as 2.61.
Consider `CCn1ccc(C(=O)N2CC(Oc3nc4c(C)cccc4s3)C2)n1`, for which the “% Inhibition” value is -7% and the Z score amounted to 1.02.
The like results for `CN(C)[C@H]1CCN(C(=O)c2cn(Cc3cccc4ccccc34)nn2)C1` were, in that order, -21% and 1.86.
`Cc1cc(CN2CCN(C(=O)c3cccc4cc[nH]c34)CC2)on1`: the “% Inhibition” value is -5% and the Z score amounted to 0.68.
For `N#Cc1ccc(CO[C@@H](CN2CCN(C(=O)COCc3ccccc3)CC2)c2cccc(N3CCCC3)c2)cc1`, the “% Inhibition” value came out at 1% and the Z score is -0.07.
Regarding `Cc1oc(C(C)C)nc1C(=O)NCCCN1CCOCC1`, the “% Inhibition” value is recorded as -9% and the Z score is reported as 1.15.
On to `CC(C)C[C@H](NC(=O)N1CC(O)C1)c1cccnc1`, for which the “% Inhibition” value is recorded as -19% and the Z score is on record as 2.06.
Turning to `CC(C)(C)C(=O)N[C@@H]1c2ccccc2C2(CCNCC2)[C@H]1OCc1cccnc1`, the “% Inhibition” value is recorded as -7% and the Z score is on record as 0.9.
For `O=S(=O)(c1cnc(N2CCCCC2)c(Cl)c1)N1CCCC1`, the “% Inhibition” value was -1% and the Z score turned out to be 0.19.
For `C=C(C)COc1ccccc1NC(=O)Cc1cc(C)no1`, the “% Inhibition” value amounted to 10% and the Z score was -1.27.
As to `O=C(NCCCN1CCCC1=O)c1ccc(Cl)o1`, the “% Inhibition” value is on record as 2% and the Z score is reported as -0.36.
As to `Cc1n[nH]c(C)c1CC(=O)N[C@H](c1ncc[nH]1)C(C)C`, the “% Inhibition” value was found to be 3% and the Z score is on record as -0.36.
In the case of `COc1ccc(C2CN(C(=O)c3ccccc3)CC2C(=O)NCc2ccc(F)cc2)cc1` (configuration not stated), the “% Inhibition” value is given as -8% and the Z score is listed as 1.19.
The like results for `Cn1c(=O)n([C@@H]2CCN(C(=O)COc3ccc(F)cc3)C2)c2ncccc21` were, in that order, 4% and -0.58.
In the case of `Nc1nc2c(c(C(=O)N3CC(c4ccccn4)C3)n1)CCCC2`, the “% Inhibition” value was -7% and the Z score was 1.5.
As to `CCN(CC)CCNC(=O)c1cc(N2CCCCCC2)ccn1`, the “% Inhibition” value came to 7% and the Z score is -1.13.
Take `O=C(NC[C@H]1Cc2ccccc21)Nc1cc(C(F)(F)F)c[nH]c1=O`: the “% Inhibition” value is -13% and the Z score is on record as 1.17.
Consider `CCCN(C)C(=O)c1coc(CN2CCN(c3ncccn3)CC2)n1`, for which the “% Inhibition” value is on record as -7% and the Z score amounted to 1.43.
Turning to `CCc1onc(C)c1NC(=O)N1CCC(C)(COC)CC1`, the “% Inhibition” value is reported as -3% and the Z score worked out at 0.32.
Turning to `COc1ccc([C@H]2CC(=O)Nc3ccsc32)cc1`, the “% Inhibition” value is -7% and the Z score came to 0.85.
In the case of `CCC(C)(C)[C@@H]1CCCN1C(=O)Cc1c(C)n[nH]c1C`, the “% Inhibition” value was -1% and the Z score turned out to be 0.14.
As for `CCc1c(C)sc(NC(=O)[C@@H]2CCCO2)c1C(=O)NC1CCCCC1`, the “% Inhibition” value is given as -23% and the Z score turned out to be 2.1.
Consider `Cc1ccc(OC(=O)c2ccncc2)c(-n2nc3ccccc3n2)c1`, for which the “% Inhibition” value is listed as -3% and the Z score came out at 0.61.
Regarding `O=C(Nc1ccc2c(n1)CCC2)N1CCC(OC2CCC2)CC1`, the “% Inhibition” value was -4% and the Z score came out at 0.59.
`CCN(C[C@H]1CCCO1)C(=O)Nc1ccc(-c2cn[nH]c2)cc1`: the “% Inhibition” value is -13% and the Z score is 1.84.

The term % Inhibition denotes the drop in the measured response relative to a control, in per cent.
